The whole screen tested about 350,000 compounds, of which about 9,900 (2.8%) were called active. This list was built around the results that the source calls inconclusive (neither active nor inactive); the mix of calls is not that of the screen. Calls come from the whole dose curve; as a rule, active = well fitted activation curve with a large enough effect; inconclusive = small, poorly fitted or top-dose-only effect; inactive = no such curve, though single readings can be large or run the other way. No potency is given beside an inconclusive call; the fits are too rough.
test: A quantitative high throughput screen for small molecules that induce DNA re-replication in MCF 10a normal breast cells.; note: nearly all actives have a fitted effect of over 50% in size; settings: MCF 10A DNA re-replication, Hoechst nuclear intensity, 48 h; series mostly up to 46.1 µM
Potency is the fitted concentration of half-maximal effect; tags give direction and shape of the fitted curve.

Row | SMILES | Potency
1 | O=C(COC(=O)COc1cc(Cl)c(Cl)cc1Cl)NC1CC1 | inactive
2 | Cc1cccc(CN2C(=O)N/C(=C/c3cc(C)n(-c4ccccn4)c3C)C2=O)c1 | inconclusive [activator, partial curve, poor fit]
3 | O=C(NC1CCCCC1)C(c1ccncc1)N(Cc1ccc2c(c1)OCO2)C(=O)C(F)(F)F (stereo not given) | inactive
4 | CCCCCCn1nc(C(=O)Nc2nc3c(s2)CCCC3)c2ccccc2c1=O | inconclusive [activator, partial curve, poor fit]
5 | N#C/C(=C\c1cn(CC(=O)N2CCCCC2)c2ccccc12)C(=O)NCc1ccc2c(c1)OCO2 | inactive
6 | Cc1c(-c2ccc(F)cc2)nc(N)c(C#N)c1-c1cccnc1 | inconclusive [activator, partial curve, poor fit]
7 | Cc1cc2c(SCC(=O)Nc3cccc(O)c3)ncnc2s1 | inactive
8 | Cc1ccccc1OCCCCn1cnc2ccccc21 | inconclusive [activator, partial curve, poor fit]
9 | CC(C)N1C(=O)S/C(=C/c2ccc3c(c2)n(C)c(=O)n3C)C1=O | inconclusive [activator, single point]
10 | CC1CCN(CCCNC(=O)c2cc3c(s2)-c2ccccc2OC3)CC1 | active: 5.8 µM
11 | Cc1ccc(NC(=O)c2cccc(S(=O)(=O)N3CCCCC3)c2)cc1 | inconclusive [activator, single point]
12 | Cc1ccc(/C=N/Nc2cccc3cccnc23)c(O)c1 | inconclusive [activator, single point]
13 | CCOc1ccccc1C(=O)OCC(=O)NCCc1ccc(OC)cc1 | inconclusive [activator, single point]
14 | NC(=O)c1c(NC(=O)c2ccc([N+](=O)[O-])o2)sc2c1CCCC2 | active: 2.59 µM
15 | Cc1c(N(C)S(=O)(=O)c2ccc(Cl)c(C(=O)NCC(C)(C)N3CCOCC3)c2)c(=O)n(-c2ccccc2)n1C | inactive
16 | CN(C1=C(N2CCCCC2)C(=O)c2ccccc2C1=O)c1ccccc1 | inconclusive [activator, partial curve, poor fit]
17 | O=C(Nc1ccncc1)c1ccc(Cl)c(S(=O)(=O)N2CCCCC2)c1 | active: 13 µM
18 | CCOC(=O)CSc1nc(-c2ccncc2)ccc1C#N | active: 11.6 µM
19 | CC(C)(C)c1ccc(/C=N/NC(=O)c2ccccn2)cc1 | inactive
20 | COc1ccc(OC)c(NC(=O)CS(=O)(=O)Cc2ccccc2)c1 | inactive
21 | O=C1c2ccc(-c3nc4ccccc4o3)cc2C(=O)N1Cc1cccnc1 | active: 9.2 µM
22 | CCN=C1S/C(=C\c2cn(CC)c3ccccc23)C(=O)N1CC | inconclusive [activator, single point]
23 | Cc1ccc(Nc2nnc(SC(C)C(=O)Nc3c(C)n(C)n(-c4ccccc4)c3=O)s2)cc1 (stereo not given) | inactive
24 | CC1Sc2ccc(S(=O)(=O)N3CCN(c4cccc(Cl)c4)CC3)cc2NC1=O (stereo not given) | inconclusive [activator, single point]

Row | SMILES | Potency
25 | Cc1ccc2c(C)c(C)c(=O)n(C)c2c1 | inactive
26 | Cc1occc1C(=O)N/N=C/c1sc(N2CCOCC2)nc1-c1ccccc1 | inconclusive [activator, partial curve, poor fit]
27 | O=C(O)/C=C\C(=O)Nc1cccc(NC(=O)c2ccccc2)c1 | inactive
28 | COc1ccc(CCNC(=O)C(=O)NCC2CCCO2)cc1 (stereo not given) | inactive
29 | O=C(Nc1cnn(Cc2ccc(F)cc2)c1)c1noc2c1CCCC2 | active: 4.61 µM
30 | O=C(NCc1ccc2c(c1)OCO2)c1nc(S(=O)(=O)Cc2ccccc2)ncc1Cl | inconclusive [activator, single point]
31 | COc1ccc(N2CCN(C(c3cccs3)C(C)NC(=O)C(=O)N3CCCC3)CC2)cc1 (stereo not given) | inactive
32 | Cc1ccc(NC(=O)c2ccc(Cl)cc2[N+](=O)[O-])nc1 | inconclusive [activator, single point]
33 | COc1ccc(/C=C/C(=O)N(C)CC(=O)Nc2cccc(F)c2)cc1S(=O)(=O)N1CCCCC1 | inconclusive [activator, single point]
34 | Cc1ccc2nc(NC(=O)CNS(=O)(=O)c3ccc(Br)s3)sc2c1 | inconclusive [activator, single point]
35 | O=C1N/C(=C/c2ccc(N3CCOCC3)o2)C(=O)N1c1cccc(Cl)c1 | inconclusive [activator, full curve, poor fit]
36 | CCOc1cc(NC(=S)Nc2ccccc2)c(OCC)cc1NC(=O)c1ccc(OC)cc1 | inactive
37 | O=C(NNC(=O)C1CC=CCC1C(=O)O)c1cccs1 (stereo not given) | inconclusive [activator, partial curve, poor fit]
38 | CC1(C)CC2CC(C)(CN2C(=O)c2cc(-c3ccccc3)on2)C1 (stereo not given) | inconclusive [activator, single point]
39 | CC1=NN(C(=O)c2ccccc2F)C(O)(c2ccc(Cl)cc2)C1 (stereo not given) | inconclusive [activator, partial curve, poor fit]
40 | COc1ccc(/C=C(\C#N)C(=O)NCc2ccccc2)cc1 | inactive
41 | CCc1ccccc1NC(=O)CN1CCN(CC(=O)Nc2ccc3c(c2)OC2(CCCCC2)O3)CC1 | active: 6.51 µM
42 | CC(=O)Nc1ccc(N(C(=O)CNC(=O)c2ccco2)C(C(=O)NC2CCCC2)c2ccco2)cc1 (stereo not given) | inconclusive [activator, partial curve, poor fit]
43 | CCOC(=O)n1c(=O)n(Cc2ccccc2)c2ccccc21 | inactive
44 | O=C(CN1C(=O)/C(=C/c2ccccc2F)Sc2ccccc21)NCc1cccnc1 | inconclusive [activator, single point]
45 | CC1CCCCC1NC(=O)CSc1nnc(-c2ccco2)n1C (stereo not given) | inconclusive [activator, single point]
46 | CCOC(=O)c1c(NC(=O)CSc2nnnn2-c2ccccc2OCC)sc2c1CC(C)(C)NC2(C)C | inconclusive [activator, single point]
47 | Cc1ccccc1S(=O)(=O)Oc1cccc2c(O)cccc12 | inconclusive [activator, partial curve, poor fit]
48 | COc1ccc(C(=O)CCN2CCN(c3ccccc3F)CC2)cc1 | active: 5.8 µM

Row | SMILES | Potency
49 | Cc1[nH]c2ccccc2c1/C=N/NS(=O)(=O)c1ccccc1 | inconclusive [activator, single point]
50 | O=C1C=C(/C=C/c2ccccc2)C[C@@H](c2ccc(F)cc2)C1 | inconclusive [activator, single point]
51 | CCOC(=O)C1(CCOc2ccccc2)CCN(Cc2cccc(OC)c2O)CC1 | inactive
52 | CC1CC(Nc2ccccc2N)=CC(=O)O1 (stereo not given) | inactive
53 | Cc1nc(N2CCN(c3ccccn3)CC2)c2c(C)c(C(=O)Nc3c(F)cc(F)cc3Br)sc2n1 | inactive
54 | CCCCCCCCn1c(N2CCN(c3cccc(Cl)c3)CC2)nc2c1c(=O)[nH]c(=O)n2C | inconclusive [activator, partial curve, poor fit]
55 | Cc1cc(C)nc(Sc2ccc(/C=C(\C#N)C(=O)Nc3ccccc3)o2)n1 | inconclusive [activator, partial curve, poor fit]
56 | COc1cc(C2NC(=O)c3ccccc3O2)ccc1OC(C)C (stereo not given) | inconclusive [activator, partial curve, poor fit]
57 | CN1C(=O)CSC1=NC12CC3CC(CC(C3)C1)C2 | inactive
58 | COc1ccccc1NC(=O)N[C@@H](Cc1c[nH]c2ccccc12)C(=O)NN | inconclusive [activator, partial curve, poor fit]
59 | CCCCNS(=O)(=O)c1ccc2nc(SCC(=O)Nc3sccc3C#N)[nH]c2c1 | inconclusive [activator, single point]
60 | O=C(NCCC1CCCCN1S(=O)(=O)c1ccccc1)C(=O)NCc1ccccc1 (stereo not given) | inconclusive [activator, single point]
61 | Cc1ccc(OCCCN2C(=O)C(=O)c3cccc(C)c32)cc1 | inconclusive [activator, single point]
62 | O=C(Nc1cc(-c2nc3ccccc3s2)ccc1Cl)c1ccc2c(c1)OCO2 | active: 9.2 µM
63 | C=C1CC[C@H](O)C/C1=C/C=C1\CCC[C@]2(C)[C@@H]([C@H](C)CC[C@@H](O)C(C)(C)O)CC[C@@H]12 | inconclusive [activator, single point]
64 | CC(C)C(C)NC(=O)COc1ccc(-c2ccccc2)cc1 (stereo not given) | inactive
65 | C/C(=N/Oc1nc(C)cc(C)n1)c1ccc(Cl)cc1Cl | inconclusive [activator, partial curve, poor fit]
66 | O=C(Nc1cc(S(=O)(=O)N2CCCCCC2)ccc1OCC(F)(F)F)C1CCC1 | inconclusive [activator, single point]
67 | CC1=NN(c2ccc(C)cc2)C(=O)/C1=C\C=C\c1ccccc1 | inconclusive [activator, single point]
68 | CN(C)c1ccc(C2(O)C(=O)c3ccccc3C2=O)cc1 | inconclusive [activator, single point]
69 | CCOC(=O)c1c(NC(=O)c2ccccc2Br)sc2c1CCc1ccccc1-2 | inconclusive [activator, partial curve, poor fit]
70 | COCC(CN1CCN(C2=NS(=O)(=O)c3ccccc32)CC1)OC(=O)c1ccc(OC)cc1 (stereo not given) | inconclusive [activator, single point]

From PubChem BioAssay AID624296 (National Center for Advancing Translational Sciences (NCATS), 2012)
